# Measured values reported in the supplement of paper PMC4723716.
# ± gives the uncertainty stated by the source. The full ranking holds about 9,900 compounds; the median of “viability index relative to DMSO control” is about 1, and the lowest 2% start at about 0.85. Some of the results follow.
# Test system: Plasmodium falciparum NF54 stage V gametocytes
# Test: viability index relative to DMSO control (fraction); higher = less gametocyte killing
# Settings: 2.5 µM, library set: Broad Institute DOS, incubation time: 72 h
# In short: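 P. falciparum NF54 stage V gametocytes in serum-free screening medium (0.75% gametocytemia, 1.25% hematocrit, 10 µl) were incubated with compound at 2.5 µM in 1,536-well plates for 72 hr at 37°C under low oxygen. Then 3 µl of 2.5 µM MitoTracker Red CMXRos plus 0.13% saponin was added for one to two hours. One field per well was imaged, 20–70 µm2 red particles were counted, and the viability index was the count divided by the plate mean of DMSO wells.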
row,SMILES,viability index
1,C[C@@H]1CCCCO[C@@H](CN(C)S(=O)(=O)c2cn(C)cn2)[C@H](C)CN([C@@H](C)CO)C(=O)c2cc(N(C)C)ccc2O1,1.06 ± 0.012
2,COc1ccc2c3c([C@H](CO)NC[C@]33CCN(CC3)C(=O)c3ccc(F)cc3)n(C)c2c1,0.918 ± 0.025
3,CS(=O)(=O)N1[C@H](CO)[C@H](c2ccc(C#Cc3cccc(F)c3)cc2)[C@@H]1C#N,1.04 ± 0.061
4,CO[C@@H]1CN(C)C(=O)c2ccc(NC(=O)Nc3ccc(F)cc3)cc2OC[C@@H](C)N(C(=O)c2ccc(F)cc2)C[C@H]1C,1 ± 0.025
5,Cc1nn(C)cc1NC(=O)C[C@@H]1CC[C@H]2[C@H](COc3ccc(NC(=O)C4CCOCC4)cc3C(=O)N2C)O1,1.087 ± 0.0056
6,CC(C)C[C@H]1COCc2cn(nn2)CC[C@H](Cc2ccc(Cl)cc2)C(=O)N1,0.978 ± 0.097
7,CC(C)c1cn(CC[C@@H]2CC[C@@H](NS(=O)(=O)c3ccc(F)cc3)[C@H](CO)O2)nn1,1.12 ± 0.091
8,CO[C@@H]1CN(C)C(=O)c2cc(NC(=O)Nc3c(C)noc3C)ccc2OC[C@@H](C)NC[C@H]1C,1.03 ± 0.047
9,COc1ccccc1CNC(=O)C[C@H]1CC[C@H]2[C@@H](COc3ccc(NC(C)=O)cc3C(=O)N2C)O1,0.975 ± 0.098
10,COc1ccc(S(=O)(=O)Nc2ccc3c(c2)C(=O)N([C@@H](C)CO)C[C@@H](C)[C@@H](CN(C)S(=O)(=O)c2ccc(Cl)cc2)OCCCC[C@H](C)O3)cc1,0.911 ± 0.031
11,CCCC#Cc1ccc2c(c1)[C@@H]1[C@@H](CCN1C(=O)CC1CC1)[C@@H](CO)N2C,1.09 ± 0.02
12,O=C(C[C@H]1CC[C@@H](NC(=O)c2ccc(F)cc2)[C@H](CO)O1)NCCc1ccccc1,1.12 ± 0.089
13,CO[C@H]1CN(C)C(=O)c2cc(NC(=O)NC3CCCCC3)ccc2OC[C@@H](C)N(CC2CCOCC2)C[C@@H]1C,1.09 ± 0.029
14,COCC(=O)Nc1ccc2c(c1)[C@H]1C[C@H](CC(=O)N[C@H](C)c3ccccc3)O[C@@H](CO)[C@H]1O2,1.016 ± 0.0073
15,CN(C)C(=O)c1cccc(-c2ccc([C@H]3[C@@H]4CN(Cc5ccccc5F)C[C@H]3N4)cc2)c1,1.05 ± 0.084
16,CC(C)C#Cc1ccc([C@H]2[C@H](CO)N3C(=O)CN(C(=O)NC4CCCC4)C[C@@H]23)cc1,0.977 ± 0.053
17,O=C(Cc1cccnc1)N1CC(=O)N2[C@H](CO)[C@@H](c3ccc(C4=CCCCC4)cc3)[C@H]2C1,0.9507 ± 0.0051
18,CO[C@H](CN(C)Cc1cc(F)ccc1F)[C@@H](C)CN(C(=O)Nc1ccc(C(F)(F)F)cc1)[C@H](C)CO,1.1 ± 0.057
19,COc1cccc(NC(=O)Nc2ccc3c(c2)C(=O)N(C)C[C@@H](OC)[C@H](C)CN[C@H](C)CO3)c1,0.946 ± 0.14
20,O=C(O)[C@@H]1[C@@H](CO)[C@@H]2Cn3c(cccc3=O)[C@@H]2N1C(=O)NC1CCCC1,1.09 ± 0.016
21,N#C[C@@H]1[C@@H](c2ccc(C#Cc3cccnc3)cc2)[C@@H](CO)N1C(=O)NC1CCCCC1,1.08 ± 0.11
22,COc1ccccc1NC(=O)N1C[C@H]2[C@@H](c3ccccc31)[C@H](CO)N2C(=O)C1CCCC1,1.02 ± 0.046
23,COc1ccc2c3c([C@@H](CO)N(Cc4ccncc4)C[C@]33CN(C3)C(=O)C3CCCCC3)n(C)c2c1,1.062 ± 0.004

row,SMILES,viability index
1,CS(=O)(=O)Nc1ccc2c(c1)[C@H]1C[C@@H](CC(=O)NCCc3ccccc3)O[C@H](CO)[C@H]1O2,1.04 ± 0.022
2,O=C(C[C@H]1CC[C@@H]2[C@H](COC[C@H](O)CN2C(=O)c2cccnc2)O1)NCC1CC1,1 ± 0.052
3,COc1ccc(-c2cn(CC[C@H]3CC[C@H](NC(=O)c4cnccn4)[C@@H](CO)O3)nn2)cc1,1.18 ± 0.081
4,CO[C@@H]1CN(C)C(=O)c2cc(NC(=O)C3CCOCC3)ccc2OC[C@@H](C)N(C(=O)Nc2ccc(C(F)(F)F)cc2)C[C@H]1C,0.9496 ± 0.0042
5,CCCN1C[C@H](C)[C@H](OC)CN(C)C(=O)c2cc(NC(=O)Nc3cccc(F)c3)ccc2OC[C@H]1C,1.13 ± 0.05
6,CN(C)C(=O)C[C@@H]1C=C[C@H](NC(=O)c2ccc(F)cc2)[C@H](CO)O1,1.11 ± 0.23
7,O=C(c1ccccn1)N1CC(=O)N2[C@H](CO)[C@H](c3ccc(C4=CCCC4)cc3)[C@@H]2C1,0.998 ± 0.087
8,C[C@@H]1CN([C@@H](C)CO)C(=O)c2cc(NC(=O)Nc3cccc4ccccc34)ccc2O[C@@H]1CN(C)S(=O)(=O)c1cccs1,1.04 ± 0.043
9,CC(C)(O)C#Cc1ccc([C@@H]2[C@@H](CO)N3CCCCN(S(C)(=O)=O)C[C@H]23)cc1,1.02 ± 0.037
10,O=C(C[C@H]1C=C[C@@H](NC(=O)c2cnccn2)[C@@H](CO)O1)NCc1ccccc1F,1.04 ± 0.068
11,CCNC(=O)[C@H]1[C@H](CO)[C@H]2Cn3c(cccc3=O)[C@@H]1N2C(=O)Nc1cc(F)ccc1F,1.03 ± 0.078
12,CO[C@H]1CN(C)C(=O)c2cccc(C#N)c2OCC[C@H]2CC[C@@H](OC)[C@H](CN(C)C(=O)[C@H]1C)O2,1.04 ± 0.029
13,Cc1noc(C)c1S(=O)(=O)N(C)C[C@H]1Oc2c(NC(=O)c3ccc(-c4nccs4)cc3)cccc2C(=O)N([C@@H](C)CO)C[C@H]1C,1.02 ± 0.032
14,CC(C)NC(=O)Nc1cccc2c1O[C@H](CN(C)C(=O)Nc1ccccc1)[C@@H](C)CN([C@H](C)CO)C2=O,0.975 ± 0.13
15,c1cncc(CN2C[C@@H]3N[C@H](C2)[C@@H]3c2ccc(-c3cccnc3)cc2)c1,1.084 ± 0.0083
16,COc1cccc(C(=O)Nc2ccc3c(c2)OC[C@@H](C)N(CCc2ccccc2)C[C@H](C)[C@H](OC)CN(C)C3=O)c1,1.07 ± 0.062
17,COc1ccc2c3c([C@H](CO)N(Cc4ccccc4OC)C[C@]33CCN(CC4CC4)CC3)n(C)c2c1,0.9438 ± 0.0079
18,CCc1nc(N2[C@H](C#N)[C@@H](c3ccccc3-c3ccccc3C)[C@H]2CO)sc1C,1.02 ± 0.18
19,C[C@H](NC(=O)C[C@H]1C=C[C@@H](NC(=O)c2cccnc2)[C@@H](CO)O1)c1ccccc1,1.116 ± 0.004
20,Cc1noc(C)c1NC(=O)Nc1ccc2c(c1)C(=O)N([C@H](C)CO)C[C@H](C)[C@H](CN(C)Cc1ccc3c(c1)OCO3)OCCCC[C@@H](C)O2,1.11 ± 0.04
21,CO[C@H](CN(C)C(=O)Nc1ccc(Cl)cc1)[C@H](C)CN(Cc1ccccc1Cl)[C@@H](C)CO,1.07 ± 0.037
22,COC(=O)C[C@H]1C[C@@H]2c3cc(NC(=O)c4ccc5c(c4)OCO5)ccc3O[C@@H]2[C@@H](CO)O1,1.035 ± 0.007
